# Measurements reported in publication PMC6919601, “Identification of Plasmodium dipeptidyl aminopeptidase allosteric inhibitors by high throughput screening” (PLoS ONE, 2019).
# The whole screen tested about 110,000 compounds, of which about 230 (0.21%) showed an effect of 50% or more. This is one part of the list.
# Biological target: DPAP1 (Plasmodium falciparum, UniProt Q8IIJ9)
# Assay: primary screen, percent inhibition; read by cleavage of a fluorogenic dipeptide substrate; higher = more effect of the substance
# Set-up: species or system P. falciparum D10 trophozoite lysates; single well
# 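Also: 30 min substrate incubation versus DMSO and 10 µM JCP410 controls.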
# Chain of DPAP1 (Q8IIJ9 whole entry, looked up): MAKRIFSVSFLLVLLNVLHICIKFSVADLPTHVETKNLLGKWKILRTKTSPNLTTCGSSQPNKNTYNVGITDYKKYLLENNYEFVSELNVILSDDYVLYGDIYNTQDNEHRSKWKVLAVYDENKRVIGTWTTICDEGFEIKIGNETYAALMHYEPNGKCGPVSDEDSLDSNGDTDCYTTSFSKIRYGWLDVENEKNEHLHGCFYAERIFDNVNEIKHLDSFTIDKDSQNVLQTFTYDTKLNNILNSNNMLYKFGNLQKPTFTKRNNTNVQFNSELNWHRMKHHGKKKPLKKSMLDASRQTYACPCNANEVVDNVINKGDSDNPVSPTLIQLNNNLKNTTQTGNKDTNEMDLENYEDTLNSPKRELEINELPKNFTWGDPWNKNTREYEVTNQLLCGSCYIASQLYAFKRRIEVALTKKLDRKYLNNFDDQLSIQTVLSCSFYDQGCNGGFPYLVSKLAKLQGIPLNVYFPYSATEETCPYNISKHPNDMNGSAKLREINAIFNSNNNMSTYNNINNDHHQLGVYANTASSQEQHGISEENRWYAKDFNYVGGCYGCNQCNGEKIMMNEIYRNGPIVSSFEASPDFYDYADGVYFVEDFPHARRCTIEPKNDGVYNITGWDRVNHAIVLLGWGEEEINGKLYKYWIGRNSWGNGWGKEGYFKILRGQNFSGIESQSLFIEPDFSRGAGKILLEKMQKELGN
row,Structure (SMILES),% Inhibition @ 10 uM
1,CC(O)CSc1nc2c(c(=O)[nH]c(=O)n2C)n1C(C)C (stereo not shown),1.67%
2,COC(=O)C1=CN(Cc2ccc(OC)cc2)C=C(C(=O)OC)C1c1cccc(OC)c1OC,0.219%
3,COc1ccc2nc(NC(=O)c3cc(C)oc3C)sc2c1,-4.38%
4,CC(C)C(=O)Nc1nc(-c2ccc(S(=O)(=O)N3CCOCC3)cc2)cs1,3.29%
5,COc1cc(C=O)ccc1OC1=NS(=O)(=O)c2ccccc21,3.66%
6,O/N=C1\CCCc2c1[nH]c1ccc(C3CCCCC3)cc21,-4.61%
7,O=C(COc1ccc(Cl)cc1)NCc1nnc(SC/C=C/c2ccccc2)o1,-9.23%
8,O=C(Cn1ncc2c3ccccc3nc-2c1O)N1CCC(N2CCCCC2)CC1,8.03%
9,CC(C)c1ccc(/C=C(\C#N)c2nn(CCO)c(N)c2C#N)cc1,-1.03%
10,CCOc1cc(/C=C2/NC(=S)NC2=O)cc(Br)c1O,1.26%
11,O=C(c1ccccc1)N1CCN(C(=O)c2cccc(COc3ccc4c(c3)CCC4)c2)CC1,0.413%
12,Oc1nc(S)nc(O)c1C/C=C/c1ccccc1,-0.906%
13,CN(C)c1cc(NC(=O)CN2CCCCC2)c2ccccc2n1,-3.74%
14,CC[C@H](NC(=O)[C@H](CC1CCCC1)NC1=NS(=O)(=O)c2ccccc21)C(=O)c1nc2ccccc2o1,1.61%
15,CC(=O)N1N=C(c2ccccc2)CC1c1ccccc1[N+](=O)[O-] (stereo not shown),3.16%
16,CCOc1ccc(/C=C/c2nc(C#N)c(NCCCn3ccnc3)o2)cc1,-0.808%
17,CC(C)(C)NC(=O)c1ccc2c3c(onc13)-c1ccccc1C2=O,-2.41%
18,C=CCSc1nc2c(c(=O)[nH]c(=O)n2C)n1CCC(C)C,4.09%
19,CN1CCC(NCc2cccc(Br)c2)CC1,-5.11%
20,CCC(C)NC(=O)c1cc(-c2ccccc2F)no1 (stereo not shown),-5.11%
21,Cc1nn(CCCC(=O)NCCC2=CCCCC2)c(=O)c2cc3sccc3n12,3.4%
22,Cc1cc(C)cc(N2C(=O)c3ccccc3C2=O)c1,-0.546%

row,Structure (SMILES),% Inhibition @ 10 uM
1,COc1ccc(CNC2C3CC4CC(C3)CC2C4)c(OC)c1C (stereo not shown),9.88%
2,COC(=O)c1sc(NC(=O)c2ccccc2C)nc1C,-3.75%
3,O=C(CN1C(=O)S/C(=C/c2ccccc2)C1=O)N1CCN(c2ccccc2)CC1,-1.44%
4,O=C(O)Cc1cc(O)n(-c2nc3ccccc3s2)n1,2.7%
5,O=C(Cn1ncc2c1-c1ccccc1OC2)N(Cc1ccco1)C1CCCCC1,-4.21%
6,CCN1CCC(NC2CCCC(C)C2C)CC1 (stereo not shown),-3.27%
7,Cc1nc(Nc2nc3ccccc3o2)nc(C)c1C(=O)Nc1ccc(F)cc1,-4.52%
8,CCC(C)[C@H](NC(=O)OCc1ccccc1)C(=O)N[C@@H](CCc1ccccc1)C(=O)CNS(=O)(=O)c1ccc2oc3ccccc3c2c1 (stereo partly shown),-5.64%
9,CCOC(=O)N1CCN(CC(O)COc2ccc(Cl)cc2C)CC1 (stereo not shown),-6.2%
10,Cc1cc2ccccc2n1CCNC(=O)C(C)(C)C,-6.14%
11,Cc1ccc(-n2nc(C)c(/C=N/c3ccc(C(=O)N4CCOCC4)cc3)c2O)cc1C,5.58%
12,COC(=O)C1=C(N)n2c(s/c(=C\c3cccnc3)c2=O)=C(C(=O)OC)C1c1cccnc1 (stereo not shown),-1.84%
13,COc1cccc(/C=C2\NC(=O)N(Cc3ccc(F)cc3)C2=O)c1OC(C)C,3.5%
14,CCOc1cc(C(=O)C(=O)c2ccc(OC)c(OCC)c2)ccc1OC,6.08%
15,O=C(Nc1nccs1)c1ccc(COc2ccc(Br)cc2)cc1,0.909%
16,COc1ccccc1/C=C/C(=O)Nc1nc2nccc(-c3ccccc3)n2n1,-0.386%
17,O=C(NCc1ccc2c(c1)OCO2)c1nnc(Cc2ccc(F)cc2)o1,1.3%
18,Cc1ccc(NC(=O)CN(CCc2ccccc2)S(C)(=O)=O)cc1,-6.65%
19,Cc1cc(-c2ccc(S(=O)(=O)NC3CCCc4ccccc43)cc2)on1 (stereo not shown),-8.28%
20,CC(=O)N(C)c1ccc(NC(=O)c2cccs2)cc1,-5.41%
21,CC(=O)Nc1ccc(NC(=O)COc2ccc(Br)cc2)cc1C,-7.1%
22,O=C(Nc1ccc(-c2ccc(Cl)cc2)cc1)c1sc2ccccc2c1Cl,3.05%

row,Structure (SMILES),% Inhibition @ 10 uM
1,Cc1ccccc1CNCc1c(C(=O)O)c(C)n(Cc2cccc(Cl)c2)c1C,11.5%
2,O=C(Nc1ccc(Cl)cc1)c1ccccc1Br,-3.71%
3,COc1ccc(C2=NOC(C(=O)N3CCC4(CC3)OCCO4)C2)cc1 (stereo not shown),1.62%
4,Cc1ccccc1CNC(=O)Cc1cccs1,1.68%
5,CCOc1ccc(CCNC(=O)c2sc3nc(C)cc(COC)c3c2N)cc1OCC,2.5%
6,COCCN1C(=O)c2ccccc2C(C(=O)Nc2cccnc2)C1c1cccs1 (stereo not shown),6.64%
7,O=C(O)c1ccc(CN2CCCCCC2)cc1,-6.21%
8,COc1ccc(Br)cc1CN1CCN(C(=O)c2cccnc2)CC1,-2.94%
9,Cc1ccc(S(=O)(=O)N(CC(=O)NCC2CCCO2)c2ccc(Cl)cc2C)cc1 (stereo not shown),1.62%
10,Cc1ccc(OCC(=O)N2CCCC2)c(Br)c1,3.83%
11,COc1ccc(C(=O)CN2CCN(CCN3C(=O)c4cccc5cccc(c45)C3=O)CC2)cc1,29%
12,CCOc1ccc(-c2cc(C(=O)NCCN(CC)CC)c3ccccc3n2)cc1,-0.519%
13,O=C1CCCN2N=C(SCc3cccc(C(F)(F)F)c3)SC2=N1,8.84%
14,CCOC(=O)N1CCN(C(=O)c2c(-c3ccccc3Cl)noc2C)CC1,-2.87%
15,Cc1ccc(CN(C(=S)NCC(=O)N2CCCC2)C2CCCCC2)cc1,-4.06%
16,Cc1c(C(=O)N(C)c2cccc(C(F)(F)F)c2)cnn1-c1ccccc1,1.17%
17,COc1ccc(-c2cc(C(F)(F)F)nc(SCC(=O)Nc3cn(C)nc3C)n2)cc1OC,26.2%
18,Cc1ccc(-c2nnc(S)n2/N=C/c2ccc(C(=O)O)cc2)cc1,7.26%
19,CC(=O)c1cc2c(cc1NC(=O)COc1ccccc1C)OCO2,2.5%
20,COc1ccc(NC(=O)c2nn(C)cc2Cl)c(OC)c1,-1.06%
